Laboratory results published in article PMC5735978.
No constants are given. Whether binding was seen depends on the method and setting. Some entries that bind do so weakly or less than the wild type. Where a sequence is shown, tags or fusion partners need not be part of it.

Amino acid sequences for entries named in this document (tags omitted).
UniProt Q5S007: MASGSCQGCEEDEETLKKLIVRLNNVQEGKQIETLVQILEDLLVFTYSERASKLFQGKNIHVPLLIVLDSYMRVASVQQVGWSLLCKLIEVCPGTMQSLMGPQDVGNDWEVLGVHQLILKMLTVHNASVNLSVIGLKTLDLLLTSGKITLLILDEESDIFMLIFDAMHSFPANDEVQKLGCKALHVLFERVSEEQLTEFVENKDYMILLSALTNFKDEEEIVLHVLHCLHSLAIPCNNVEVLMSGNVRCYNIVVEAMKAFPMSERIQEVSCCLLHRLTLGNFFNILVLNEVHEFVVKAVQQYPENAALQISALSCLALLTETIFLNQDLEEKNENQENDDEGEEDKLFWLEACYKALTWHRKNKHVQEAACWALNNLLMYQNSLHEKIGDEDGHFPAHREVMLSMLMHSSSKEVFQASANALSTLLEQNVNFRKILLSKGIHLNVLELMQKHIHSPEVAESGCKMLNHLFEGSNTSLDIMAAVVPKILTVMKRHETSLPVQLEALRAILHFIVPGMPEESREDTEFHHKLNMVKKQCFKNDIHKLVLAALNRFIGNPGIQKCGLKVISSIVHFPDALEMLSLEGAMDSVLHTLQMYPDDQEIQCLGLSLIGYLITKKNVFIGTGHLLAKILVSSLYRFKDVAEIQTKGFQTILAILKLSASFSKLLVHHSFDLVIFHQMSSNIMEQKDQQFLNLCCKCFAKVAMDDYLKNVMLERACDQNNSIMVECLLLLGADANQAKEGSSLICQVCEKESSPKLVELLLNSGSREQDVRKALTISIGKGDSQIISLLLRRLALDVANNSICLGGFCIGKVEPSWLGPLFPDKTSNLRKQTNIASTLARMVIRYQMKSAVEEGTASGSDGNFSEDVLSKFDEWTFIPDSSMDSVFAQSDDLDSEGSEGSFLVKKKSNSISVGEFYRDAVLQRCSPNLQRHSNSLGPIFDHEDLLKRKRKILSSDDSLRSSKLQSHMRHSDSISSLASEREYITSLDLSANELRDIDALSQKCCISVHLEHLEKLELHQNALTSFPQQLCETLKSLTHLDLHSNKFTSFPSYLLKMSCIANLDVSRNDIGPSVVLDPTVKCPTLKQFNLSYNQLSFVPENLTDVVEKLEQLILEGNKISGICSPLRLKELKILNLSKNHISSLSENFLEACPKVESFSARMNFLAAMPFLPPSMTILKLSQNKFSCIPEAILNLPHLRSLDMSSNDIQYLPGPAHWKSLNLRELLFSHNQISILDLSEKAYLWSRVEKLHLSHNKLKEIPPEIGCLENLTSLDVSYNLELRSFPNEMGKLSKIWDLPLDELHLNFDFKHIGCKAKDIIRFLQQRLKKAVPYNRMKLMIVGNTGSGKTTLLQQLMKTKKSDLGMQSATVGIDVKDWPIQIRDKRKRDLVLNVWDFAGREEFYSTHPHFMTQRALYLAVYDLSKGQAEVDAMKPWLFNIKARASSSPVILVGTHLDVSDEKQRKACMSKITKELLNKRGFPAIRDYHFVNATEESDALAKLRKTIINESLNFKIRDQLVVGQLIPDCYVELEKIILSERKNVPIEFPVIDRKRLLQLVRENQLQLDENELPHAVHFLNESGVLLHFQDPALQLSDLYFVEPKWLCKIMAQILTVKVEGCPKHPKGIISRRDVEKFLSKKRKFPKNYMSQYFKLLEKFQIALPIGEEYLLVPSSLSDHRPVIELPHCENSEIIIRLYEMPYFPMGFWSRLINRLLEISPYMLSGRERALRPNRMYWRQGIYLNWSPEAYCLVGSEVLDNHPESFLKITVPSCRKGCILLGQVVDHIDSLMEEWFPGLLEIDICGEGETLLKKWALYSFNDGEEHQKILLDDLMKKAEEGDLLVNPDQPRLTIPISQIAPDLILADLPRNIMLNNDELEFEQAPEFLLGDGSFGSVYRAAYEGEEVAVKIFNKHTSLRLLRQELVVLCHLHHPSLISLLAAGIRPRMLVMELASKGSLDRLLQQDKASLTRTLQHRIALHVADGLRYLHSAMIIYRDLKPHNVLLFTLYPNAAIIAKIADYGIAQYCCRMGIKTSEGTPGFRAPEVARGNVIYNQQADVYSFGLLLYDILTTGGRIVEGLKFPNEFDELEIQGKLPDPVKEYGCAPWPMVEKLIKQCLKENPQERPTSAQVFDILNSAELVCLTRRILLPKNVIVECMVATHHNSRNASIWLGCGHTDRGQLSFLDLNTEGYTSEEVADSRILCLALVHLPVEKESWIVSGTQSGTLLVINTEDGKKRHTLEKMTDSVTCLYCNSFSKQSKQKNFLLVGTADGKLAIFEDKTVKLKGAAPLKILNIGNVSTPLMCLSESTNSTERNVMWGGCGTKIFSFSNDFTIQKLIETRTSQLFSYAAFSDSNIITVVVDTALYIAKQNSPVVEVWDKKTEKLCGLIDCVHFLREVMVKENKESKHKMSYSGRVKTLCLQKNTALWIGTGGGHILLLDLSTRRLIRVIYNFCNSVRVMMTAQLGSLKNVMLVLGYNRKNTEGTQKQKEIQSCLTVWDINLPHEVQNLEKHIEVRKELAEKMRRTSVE

T1: 3xFlag-PAK6 K436M (UniProt Q9NQU5)
T1 sequence: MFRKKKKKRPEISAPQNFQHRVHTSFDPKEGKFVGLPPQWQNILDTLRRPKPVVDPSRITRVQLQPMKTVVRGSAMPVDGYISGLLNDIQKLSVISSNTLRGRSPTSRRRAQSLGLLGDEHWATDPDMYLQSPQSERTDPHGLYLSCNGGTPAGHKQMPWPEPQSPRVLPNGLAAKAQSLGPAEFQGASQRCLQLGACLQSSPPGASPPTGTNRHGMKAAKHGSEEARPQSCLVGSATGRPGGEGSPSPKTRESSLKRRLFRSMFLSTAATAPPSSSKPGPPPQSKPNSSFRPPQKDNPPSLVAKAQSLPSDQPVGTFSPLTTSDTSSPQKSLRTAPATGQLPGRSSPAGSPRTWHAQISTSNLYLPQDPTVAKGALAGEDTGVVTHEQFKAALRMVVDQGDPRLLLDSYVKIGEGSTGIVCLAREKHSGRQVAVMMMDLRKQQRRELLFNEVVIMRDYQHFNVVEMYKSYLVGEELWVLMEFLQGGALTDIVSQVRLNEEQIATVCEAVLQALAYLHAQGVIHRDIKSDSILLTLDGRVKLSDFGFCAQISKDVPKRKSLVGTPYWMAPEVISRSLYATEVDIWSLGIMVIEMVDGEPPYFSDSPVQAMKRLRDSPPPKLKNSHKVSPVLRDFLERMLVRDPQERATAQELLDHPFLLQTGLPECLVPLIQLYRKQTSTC


Columns and labels:
3xFlag-LRRK2 wild-type = 3xFlag-LRRK2 wild-type (UniProt Q5S007); test: far-Western, overlay or dot blot; immunopurified Flag-tagged PAK6 or LRRK2 separated by SDS-PAGE and blotted onto nitrocellulose; incubated with purified His-14-3-3s at 1 μg/ml in 5% BSA in TBS-T overnight at 4°C; anti-His detection; both purified
His-14-3-3γ S59D (human) = His-14-3-3γ S59D (human) (UniProt P61981); test: native gel or EMSA; blue native gel (4-16%) of purified His-14-3-3γ wild-type, S59D and T145D; 5 μg of protein loaded; Coomassie staining; both purified
3xFlag-PAK6 K436M = molecular target: T1, 3xFlag-PAK6 K436M; test: far-Western, overlay or dot blot; immunopurified Flag-tagged PAK6 or LRRK2 separated by SDS-PAGE and blotted onto nitrocellulose; incubated with purified His-14-3-3s at 1 μg/ml in 5% BSA in TBS-T overnight at 4°C; anti-His detection; both purified

binding (3xFlag-LRRK2 wild-type) | Binder | other results
binds | His-14-3-3γ S59A (protein, UniProt P61981 1-247) MVDREQLVQKARLAEQAERYDDMAAAMKNVTELNEPLSNEERNLLSVAYKNVVGARRSAWRVISSIEQKTSADGNEKKIEMVRAYREKIEKELEAVCQDVLSLLDNYLIKNCSETQYESKVFYLKMKGDYYRYLAEVATGEKRATVVESSEKAYSEAHEISKEHMQPTHPIRLGLALNYSVFYYEIQNAPEQACHLAKTAFDDAIAELDTLNEDSYKDSTLIMQLLRDNLTLWTSDQQDDDGGEGNN | 
 | His-14-3-3γ S59D (protein, UniProt P61981 1-247) MVDREQLVQKARLAEQAERYDDMAAAMKNVTELNEPLSNEERNLLSVAYKNVVGARRSDWRVISSIEQKTSADGNEKKIEMVRAYREKIEKELEAVCQDVLSLLDNYLIKNCSETQYESKVFYLKMKGDYYRYLAEVATGEKRATVVESSEKAYSEAHEISKEHMQPTHPIRLGLALNYSVFYYEIQNAPEQACHLAKTAFDDAIAELDTLNEDSYKDSTLIMQLLRDNLTLWTSDQQDDDGGEGNN | binding (His-14-3-3γ S59D (human)): no binding
binds | His-14-3-3γ T145D (protein, UniProt P61981 1-247) MVDREQLVQKARLAEQAERYDDMAAAMKNVTELNEPLSNEERNLLSVAYKNVVGARRSSWRVISSIEQKTSADGNEKKIEMVRAYREKIEKELEAVCQDVLSLLDNYLIKNCSETQYESKVFYLKMKGDYYRYLAEVATGEKRADVVESSEKAYSEAHEISKEHMQPTHPIRLGLALNYSVFYYEIQNAPEQACHLAKTAFDDAIAELDTLNEDSYKDSTLIMQLLRDNLTLWTSDQQDDDGGEGNN | 
binds | PAK6-phosphorylated 14-3-3γ S59A (protein, UniProt P61981 1-247, subjected to PAK6 phosphorylation (1 mM ATP); sites not told for this variant) MVDREQLVQKARLAEQAERYDDMAAAMKNVTELNEPLSNEERNLLSVAYKNVVGARRSAWRVISSIEQKTSADGNEKKIEMVRAYREKIEKELEAVCQDVLSLLDNYLIKNCSETQYESKVFYLKMKGDYYRYLAEVATGEKRATVVESSEKAYSEAHEISKEHMQPTHPIRLGLALNYSVFYYEIQNAPEQACHLAKTAFDDAIAELDTLNEDSYKDSTLIMQLLRDNLTLWTSDQQDDDGGEGNN | 
 | 6xHis-14-3-3γ wild-type (protein, UniProt P61981 1-247) MVDREQLVQKARLAEQAERYDDMAAAMKNVTELNEPLSNEERNLLSVAYKNVVGARRSSWRVISSIEQKTSADGNEKKIEMVRAYREKIEKELEAVCQDVLSLLDNYLIKNCSETQYESKVFYLKMKGDYYRYLAEVATGEKRATVVESSEKAYSEAHEISKEHMQPTHPIRLGLALNYSVFYYEIQNAPEQACHLAKTAFDDAIAELDTLNEDSYKDSTLIMQLLRDNLTLWTSDQQDDDGGEGNN | binding (3xFlag-PAK6 K436M): no binding (tested: 1 μg/ml)
binds | His-14-3-3γ T145A (protein, UniProt P61981 1-247) MVDREQLVQKARLAEQAERYDDMAAAMKNVTELNEPLSNEERNLLSVAYKNVVGARRSSWRVISSIEQKTSADGNEKKIEMVRAYREKIEKELEAVCQDVLSLLDNYLIKNCSETQYESKVFYLKMKGDYYRYLAEVATGEKRAAVVESSEKAYSEAHEISKEHMQPTHPIRLGLALNYSVFYYEIQNAPEQACHLAKTAFDDAIAELDTLNEDSYKDSTLIMQLLRDNLTLWTSDQQDDDGGEGNN | 
binds | 6xHis-14-3-3 theta (protein, UniProt P27348 1-245) MEKTELIQKAKLAEQAERYDDMATCMKAVTEQGAELSNEERNLLSVAYKNVVGGRRSAWRVISSIEQKTDTSDKKLQLIKDYREKVESELRSICTTVLELLDKYLIANATNPESKVFYLKMKGDYFRYLAEVACGDDRKQTIDNSQGAYQEAFDISKKEMQPTHPIRLGLALNFSVFYYEILNNPELACTLAKTAFDEAIAELDTLNEDSYKDSTLIMQLLRDNLTLWTSDSAGEECDAAEGAEN | 
